Assay results published in ChEMBL document CHEMBL4888484, “Replenishing the malaria drug discovery pipeline: Screening and hit evaluation of the MMV Hit Generation Library 1 (HGL1) against asexual blood stage Plasmodium falciparum ,using a nano luciferase reporter read-out” (2022).
Hit rate of the full screen: of about 150,000 compounds, about 540 (0.36%) showed an effect of 50% or more. The list shows a part of the results.

System: Plasmodium falciparum
Assay: Primary screen in NF54 nanoGlo assay, in single point, at 2uM, 72h; a lower Z score goes with more inhibition
Type: functional, Erythrocyte
Settings: timepoint 72 hour

Structure (SMILES)	% Inhibition [%]	Z score
CC(NC(=O)OC(C)(C)C)C1CN(Cc2ccco2)CCO1 (stereo not drawn)	-11	1.39
Cc1ccc(C(=O)N2CCOC3CCCCC32)c(=O)[nH]1 (stereo not drawn)	3	-0.49
CCCCNC(=O)[C@@H]1CCCC[C@@H]1C(=O)NCc1cc(C)on1	-8	1.31
CN(Cc1csc(-c2cccs2)n1)C(=O)[C@H]1CCOC1	-15	1.91
NC(=O)c1ccc(NCC(=O)N2CCC(Cc3ccccc3)CC2)cc1F	8	-1.37
O=C1CC2(CCN(C(=O)CCS(=O)(=O)c3ccccc3)CC2)CN1	-6	0.61
Cc1cc(NC(=O)[C@]23CCC[C@H]2OCC3)cnc1C	-13	1.32
CN1C[C@@H](COC(=O)CCc2ccccc2)CC1=O	-5	0.54
CCCN1C(=O)COc2cc(-c3noc(C(=O)NCc4cc(OC)ccc4OC)n3)ccc21	-9	1.59
Cc1cnc(C2CN(C(=O)[C@@H]3CCCO3)C2)n1Cc1cccnc1	-2	0.31
C[C@H](O)CC(C)(C)CNS(=O)(=O)c1c(F)cc(C#N)cc1F	-18	1.82
C[C@@H]1Oc2ccc(NC(=O)c3ccc(Cl)c(Cl)c3)cc2CN(Cc2ccccc2F)C1=O	-4	0.6
CCn1ncc(C#N)c1NS(=O)(=O)Cc1ccc(C)c(F)c1	1	-0.19
Cn1ncc(NC(=O)c2ccoc2C2CC2)c1Cl	15	-1.94
Cc1cc(C(=O)N[C@H](c2ccc(Cl)cc2)c2ccn(C)n2)c(C)o1	-10	0.89
Cc1nnc(-c2cc(C(C)C)n(-c3ccc(C(=O)N[C@H]4CCc5ccccc54)cc3)n2)o1	-2	0.4
CC(NC(=O)c1cnccn1)C1CC2CCC1C2 (stereo not drawn)	-5	0.89
N#Cc1ccc(NCCc2nnc3ccccn23)nc1	-11	1.42
COc1cccc(NC(=O)c2cccn3c(-c4ccccc4F)nnc23)c1	6	-0.94
Cc1noc(-c2ccc(S(=O)(=O)NCCc3ncc[nH]3)o2)c1C	7	-0.95
C[C@@H](c1cc2ccccc2[nH]1)N(C)C(=O)CCN1CCCCO1	-4	0.49

Structure (SMILES)	% Inhibition [%]	Z score
COCCN(CCOC)CC(=O)N1CCCC[C@@H]1C	0	0.06
Cc1cc(C)c2c(C(=O)N3CCCC3)cc(-c3cnn(C(C)C)c3)nc2c1	8	-1
COc1ccc(-c2noc(-c3cc4n(n3)CCCC4=O)n2)cc1	-6	0.79
O=C(Nc1cccnc1)N1CCC[C@H]1c1ccc2c(c1)OCCCO2	-11	1.2
CCn1c(C)ccc(C(=O)NCCc2ccc(S(N)(=O)=O)cc2)c1=O	-8	1.16
O=C(NCc1ccco1)c1cscn1	-13	1.73
CN(CC(O)c1ccccc1)C(=O)CC1(c2ccccc2)CC(=O)N(Cc2ccncc2)C1=O (stereo not drawn)	-7	1.29
C[C@@H](CN1CC(c2nc3ccccc3[nH]2)C1)C(F)(F)F	-3	0.51
Cc1noc(CN[C@H](c2nc(C3CC3)no2)C(C)C)n1	-7	1.05
CC(C(=O)N1CCCC1C1CCCN1C)n1cccn1 (stereo not drawn)	10	-1.39
COc1ncccc1C(=O)N1CC[C@H]2[C@H](CCC(=O)N2CCc2c[nH]cn2)C1	-8	1.61
CNC(=O)CN1c2ccccc2C(=O)N(C)[C@@H]1c1cccc(NC(=O)c2ccccc2Cl)c1	-7	0.62
COc1cccc(CN2CC[C@H](CO)[C@H](NC(=O)c3cccnc3)C2)n1	-9	1.21
CN1CCNC(=O)C[C@@H]2CN(C(=O)Cc3ccc(Cl)c(Cl)c3)C[C@@H]2n2cc(nn2)Cn2cccc(c2=O)C1=O	0	0.05
CC(=O)Nc1ccc(S(=O)(=O)NCc2nccc(N(C)C)n2)cc1	-2	0.37
COc1ccc2c(c1)[C@@H](NC(=O)c1ccn(C(F)F)n1)CC(C)(C)O2	0	-0.01
Cc1cnc(C(=O)NC(c2ccc(F)cc2F)[C@H]2C[C@@H](O)C2)cn1 (stereo partly drawn)	12	-1.62
Cc1ccn2c(NC(=O)c3cccc(S(=O)(=O)N4CCOCC4)c3)c(-c3ccccc3)nc2c1	-29	3.4
CCN1C(=O)C(C)(C)N[C@@H]1c1conc1C	-1	0.16
CCC(=O)N1CC[C@H](c2nc(-c3ccc(N4CCCCC4)nc3)no2)C1	-8	0.88
Cc1ncc(CO)c(CN2CCc3[nH]cnc3[C@@H]2c2ccsc2)c1O	-8	1.2

Structure (SMILES)	% Inhibition [%]	Z score
CC1=NO[C@](C)(C(=O)N2CCC(CNC(=O)CCc3cccnc3)CC2)C1	-2	0.25
COCCn1nc2n(c1=O)CCN(Cc1cccc(C#N)c1)CC2	-19	2.43
C1CCC(CCc2nc([C@H]3CCOC3)no2)CC1	-6	1.09
CCCCN(CC)c1ccc(-c2nc(-c3ccc(F)cc3)no2)cn1	-11	1.21
CC1CC(O)CN1C(=O)c1cc(C(N)=O)cs1 (stereo not drawn)	-5	0.99
CCCCc1nc(CNCCn2cccn2)no1	-11	1.14
O=C1NC[C@@]2(CCCN(Cc3ccccc3OCCCn3ccnc3)C2)O1	-15	3
Cc1cc(CN(CC(=O)O)Cc2ccc(Cl)s2)on1	-2	0.29
O=C(NCCC(=O)N1CCCCCC1)c1cc(Cl)c2c(c1)OCCCO2	30	-0.44
O=C(CN1C(=O)CNC1=O)NCc1ccc(Cl)s1	6	-0.73
O=C(CC1NC(=O)NC1=O)NC1CCCCC1Cc1ccccc1 (stereo not drawn)	7	-0.96
CCCc1[nH]ncc1C(=O)OCc1cn2ccccc2c1C#N	4	-0.53
Cn1c(=O)[nH]c(=O)c2nc(C[C@H](O)c3ccc(Cl)cc3)c(O)nc21	-4	0.53
O=C(C[C@H]1CCCO1)NCC(F)(F)C(F)F	3	-0.45
N#Cc1cccc(OCCN2CCCC[C@H]2C(=O)N2CCOCC2)c1	-1	0.12
C=CCCCC(C)NC(=O)N1CCC(S(C)(=O)=O)C1 (stereo not drawn)	-7	1.04
CCCCn1c(N)c(N(Cc2nc3ccccc3o2)CC(C)C)c(=O)[nH]c1=O	-25	3.95
CCOCC(=O)N1CCC2C(CCCN2C(=O)c2cc(OC)n(C)n2)C1 (stereo not drawn)	20	-2.54
O=C(NCC(F)(F)F)c1cnc(OC2CCOCC2)c(Cl)c1	-4	0.82
CN1C(=O)CCC(C(=O)Nc2ccnc3ccnn23)C1c1ccccc1 (stereo not drawn)	-11	1.59
Cc1cccc([C@H](C)NS(=O)(=O)c2ccnn2C(C)C)n1	-3	0.56

Structure (SMILES)	% Inhibition [%]	Z score
Cc1cc(C)c(C)c(C(=O)NC[C@H](O)c2nccn2C)c1C	10	-1.32
CN1CC(=O)N[C@@H]2CN(C(=O)CCCn3cncn3)CC[C@@H]2OCc2cccc(c2)Oc2cccc(c2)CCC1=O	-1	0.15
Cc1cc(N(C)C)ccc1CNC(=O)C(=O)Nc1cccc(C(N)=O)n1	-10	0.99
CCCCNC(=O)N1CC(C(=O)Nc2ccc(OC)cc2OC)CCC1c1ccc(F)c(C)c1 (stereo not drawn)	-3	0.35
COc1cc(OC)cc(C(C(=O)O)N2CC(C)C(F)(F)C(C)C2)c1 (stereo not drawn)	-20	2.17
CCN1CC[C@H](CN(C)Cc2cccc3cc[nH]c23)C1	-7	1.12
COc1ccc2c(C)nc(N3CCC(CCN4CCCC4)CC3)nc2c1	-6	0.72
C[C@H]1CN(Cc2c(F)cncc2F)CC(=O)N1	4	-0.42
CN(Cc1nccn1C)c1ncnc2sc(-c3ccccc3)cc12	-10	1.47
CCCC[C@H](CC)CNC(=O)c1cncn1-c1ccc(-c2c(OC)cccc2OC)cc1	-16	1.58
O=C(CCc1ccc(F)c(F)c1)N1C[C@@H](CN2CCCCC2)[C@@H](CO)C1	-10	1.64
Cc1nc(CC(=O)N(C)CC(C)(CO)CO)c(C)s1	-6	0.71
Cc1ccc([C@H](CNC(=O)c2ccc(Cl)cc2)N2CCC(C)CC2)o1	-8	1.38
CCc1cccc(NC(=O)Cn2nc(N3CCC(C)CC3)c3ccccc3c2=O)c1	-12	1.85
O=C(CCn1cnnn1)N1C[C@@H]2CC[C@H]1CN(Cc1ccc(F)cc1)C2	3	-0.41
CCOC(=O)[C@H]1CCCN(C(=O)c2coc(CN(Cc3cccc(C)c3)Cc3ccc4c(c3)OCO4)n2)C1	-1	0.08
CCn1cnnc1NC(=O)c1cc(C)sn1	1	-0.12
COC1CCN(CCCOc2cccc(C#N)c2)C(CNC(=O)OC(C)(C)C)C1 (stereo not drawn)	-11	0.96
O=C1NCCC[C@@H]1Nc1ccc(C(F)(F)F)nn1	30	-4.41
O=C([C@@H]1CCc2ccccc21)N1CCC(c2nccn2CC2CC2)CC1	1	-0.18
O=C(N[C@H]1[C@H](O)[C@H](O)C[C@@H]1c1ccncc1)c1ccccn1	9	-1.1
